The list shows a part of the results. At the low end of the ranking the order means little. Measured with an extract: partners may take part in the binding.

The assay concerns the target T1, HNF4alpha8 (COS-7 nuclear extract) (UniProt P41235-5).
T1 sequence: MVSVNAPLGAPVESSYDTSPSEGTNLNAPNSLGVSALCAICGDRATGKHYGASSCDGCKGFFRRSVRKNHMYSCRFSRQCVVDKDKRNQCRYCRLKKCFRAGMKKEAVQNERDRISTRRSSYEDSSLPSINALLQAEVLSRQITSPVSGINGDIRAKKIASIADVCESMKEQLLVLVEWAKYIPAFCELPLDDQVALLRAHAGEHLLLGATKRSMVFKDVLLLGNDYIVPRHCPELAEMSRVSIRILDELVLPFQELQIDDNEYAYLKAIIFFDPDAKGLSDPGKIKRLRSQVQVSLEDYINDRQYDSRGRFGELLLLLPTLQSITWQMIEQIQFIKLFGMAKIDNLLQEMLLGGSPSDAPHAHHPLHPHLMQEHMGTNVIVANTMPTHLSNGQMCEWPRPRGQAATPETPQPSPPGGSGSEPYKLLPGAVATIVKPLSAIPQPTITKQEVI
Nature of the assay: protein-binding microarray. The settings on record: COS-7 nuclear extract on double-stranded Agilent 4x180k PBM; binding buffer, salt, pH and temperature not given; high values mean tight binding; double strand, one strand shown; sequences stand for … in …GCCTAGGGAGATTAGAGTATCGGTCGA
With AGAATGCGAACCATTTCCCATGGGACTGGC, the binding signal (log2 normalized intensity) is -1.14.

Turning to CCCAGGGGCTCCCACCAGGGGGAGGCTCAG, the binding signal (log2 normalized intensity) is -1.24.

For GCCATTGTCCTTTGGGCTCATCCATTTTCC, the binding signal (log2 normalized intensity) worked out at 1.63.

In the case of AGGGCATATTGACTGCCCCAACGCCTCCTT, the binding signal (log2 normalized intensity) is 1.53.

For GCAAGCTTGACCTTTGATCCAGGCTCAGTG, the binding signal (log2 normalized intensity) amounted to 8.22.

As for TATACAGTTGTGGGTATGTCTGTAGGTAAG, the binding signal (log2 normalized intensity) was 1.37.

In the case of GCACGCTTAGGGAACAAAGGTCAGTCCCGC, the binding signal (log2 normalized intensity) is 6.37.

TATGACCAGTGTGTTGTGCTGACCTCCTGT: the binding signal (log2 normalized intensity) stood at 3.34.

Consider TTGACTGCAGAAGATAAGAATCTCTTTGTA, for which the binding signal (log2 normalized intensity) is -1.29.

GCAGGGCTGCCTCGCTTCCGGGTGGGAGCT: the binding signal (log2 normalized intensity) was -1.36.

Turning to AAGGCAGGAGATTCCACATTCCCTTCTTAG, the binding signal (log2 normalized intensity) was -1.27.

In the case of AGTTAGGCAGGATGGGGTCATGATAAGAGC, the binding signal (log2 normalized intensity) worked out at 0.656.

With GCAGAATGAGCAAGGTGGGTTCAGAGACCC, the binding signal (log2 normalized intensity) was determined as 0.0383.

Take TCTTCCTAGGCAATCCCATGACCTTTGTAC: the binding signal (log2 normalized intensity) came out at 9.08.

For TAAAATGCCCTCACAGGTTCCAGCATGGAC, the binding signal (log2 normalized intensity) worked out at 1.57.

In the case of TCAACCTCTCTGGGGGATGGGTCCACACAG, the binding signal (log2 normalized intensity) stood at 2.31.

Consider GGGAGATAGTCTGAGAGTCACTGCCTTATC, for which the binding signal (log2 normalized intensity) is -1.06.

As to GGGGCAGGCAGGGGATGAGATCTGAAGATA, the binding signal (log2 normalized intensity) was -1.18.

Consider CCAGTTCCAAAGTCCAGGTGCTTTCTTCTT, for which the binding signal (log2 normalized intensity) was determined as 5.37.

With ACACTGCAGGCTCTGTCCCCGCCCAGCAGA, the binding signal (log2 normalized intensity) came out at 3.09.

Consider AAGAAGTATGAAAGATGACTACCAGGTTCT, for which the binding signal (log2 normalized intensity) is -1.27.

Turning to GCTCCGCTTACTCGGCCTGGACCCCTCCGG, the binding signal (log2 normalized intensity) is 2.31.

As to AGGTTCTCATACCTTCTGCTTCAGTTTTGC, the binding signal (log2 normalized intensity) is 0.549.

Turning to GGCAGAAGGTTCCAGGGAACTGTCCACCAA, the binding signal (log2 normalized intensity) is -1.28.

On to TAAATTCCAGAAAGCAACAAAAACCAAATC, for which the binding signal (log2 normalized intensity) is -1.25.

Take CAACCCTTGTCACTTTCCCTTTGTCTCCAG: the binding signal (log2 normalized intensity) was 0.921.

TTGGGCTGCACCCTGACTAAATTCTTGTCA: the binding signal (log2 normalized intensity) is -0.233.

As for CTGCCATAAGCGAAGATAACCTACTTAAAA, the binding signal (log2 normalized intensity) was -1.14.

Turning to TGTAAGAAGTGTAAAAAGATAAGATGTACC, the binding signal (log2 normalized intensity) worked out at 1.08.

For the sequence ATAACCATGCTCAACATCAAAGGCCTTCCT, the binding signal (log2 normalized intensity) is -1.28.

GCTCTTCAATGCATTCCTGAAGCCTTCCTT: the binding signal (log2 normalized intensity) was -1.2.

Regarding TTCAAGGAGCTCGGCGCCAGGAAGCAATGG, the binding signal (log2 normalized intensity) was -1.34.

For the sequence GAACAAGGCTGAAGGGAAGCTCTGGGAGTG, the binding signal (log2 normalized intensity) is -1.44.

On to TGGGCAGAGACTATGTGGTTTTGTAAATAT, for which the binding signal (log2 normalized intensity) amounted to 1.31.

In the case of AGCCTAGACTCAACACCCAGGCTTATCTCA, the binding signal (log2 normalized intensity) was -1.36.

As for TCTATGTCCACAGAAAGGCAAGAAGTATGA, the binding signal (log2 normalized intensity) is -1.19.

Turning to CTAGCACCTGTGGATGCAGGTCTACCTTAT, the binding signal (log2 normalized intensity) was 0.621.

In the case of GCAGGCATACCAGGCAGAGGGTTAACCCCT, the binding signal (log2 normalized intensity) stood at 3.77.

On to TGTCCCTCCTCAACCTCTCCAATGCTATGC, for which the binding signal (log2 normalized intensity) came out at 1.46.

For the sequence ATAAAGTCCAAACCCCTATGTTTAATGTAT, the binding signal (log2 normalized intensity) amounted to 2.21.

For GAAAACAAACATTAGCTGCAGATTCCACCT, the binding signal (log2 normalized intensity) is -1.29.

In the case of GAGCAGTGAATGTTGAAGTCCCACGGCAAC, the binding signal (log2 normalized intensity) is -1.24.

Turning to CATTCCTTTCTAATCTCAAAGTGTCAGTCC, the binding signal (log2 normalized intensity) was 1.58.

Take AAGAAGCGTCAGTTGCCTCGCCAGAGATAA: the binding signal (log2 normalized intensity) was -1.31.

Regarding ATTTCTTTTAATGTGTGCTTTCAGGTGTGA, the binding signal (log2 normalized intensity) came out at 1.86.

For CAGTGGTAATGGAGCTGAAACTATAAACTT, the binding signal (log2 normalized intensity) is -1.14.

Regarding CTCTCTTCTTGTAATCCCATTTCCCTTGTT, the binding signal (log2 normalized intensity) was 1.83.

For the sequence TCAGTTGGTCCAAGGTACATGTCTCTGCTC, the binding signal (log2 normalized intensity) amounted to 2.09.

With TACTCTTATCAGCAGTGACTTGAGAGGCCA, the binding signal (log2 normalized intensity) was -0.177.

With CTCCAACATGACCACCTGGTTTAAGTCACT, the binding signal (log2 normalized intensity) was -0.978.

Take TTGCACCCAGGCCGTTGGACCAAGCTCTAG: the binding signal (log2 normalized intensity) was found to be 0.23.

In the case of CCAAAGAGAAGCCTAAGCAGGGCTAGACTT, the binding signal (log2 normalized intensity) is -1.27.

With CAATGAGAAACCTCAAAGGTTAGGGGGATT, the binding signal (log2 normalized intensity) was -1.37.

As to AAAACAGCCCTAACCAGGGGTGGGGACCTT, the binding signal (log2 normalized intensity) was -0.829.

For the sequence CAGAGGAGGCACTTGTCTCACATCTGATAG, the binding signal (log2 normalized intensity) was -1.27.

On to ACAGCTTTGGGCATACAAAACAACCACTCT, for which the binding signal (log2 normalized intensity) was -1.32.

Consider TAAGAGGCATGAGGTTCTTGTAAGGTTCTT, for which the binding signal (log2 normalized intensity) was determined as 0.798.

With TAGCCTAAACTATCTGGTGCGGTCCAAGAC, the binding signal (log2 normalized intensity) was -1.23.

In the case of CGAGGAGGCTGAGGCAGGATGACTGCTTGA, the binding signal (log2 normalized intensity) is -1.38.

Regarding GTCAGGACCTTTCTTTATGGACCTTGTCCC, the binding signal (log2 normalized intensity) was found to be 6.86.

With TTAATGGAAATGCCTAGGATACCTAGTAGG, the binding signal (log2 normalized intensity) was -1.24.

AGATCAGTAGCTAGGAGACAACTTAGAATT: the binding signal (log2 normalized intensity) is -1.43.

As to GTGTTTACTGGGGGCCACCATATGTATGTG, the binding signal (log2 normalized intensity) was 0.624.

Turning to ACAAGTATACCTGTACACTTACAAGTGTAC, the binding signal (log2 normalized intensity) worked out at 1.03.

In the case of ATTCCTAGATATCAGGAAGGTCAGAAAGCA, the binding signal (log2 normalized intensity) is 0.466.

Turning to GAGCCCTCTGATCTGACCCCTTCTTGACCT, the binding signal (log2 normalized intensity) was found to be 5.04.

On to AGTATTACCATGTCCTGTGATTAAGGTCAA, for which the binding signal (log2 normalized intensity) is 2.96.

As to TCTCTCTTTTTCTGAGCCTGGGTCACCCCT, the binding signal (log2 normalized intensity) stood at 2.05.

As for CCAACAGAGTCATCACAATAGGGAAACAGC, the binding signal (log2 normalized intensity) was -1.31.

As to CCGAGGAACCCAGACTGCATTTTCATCTTG, the binding signal (log2 normalized intensity) was -1.27.

As for CCTCCTAATCACTGCCCTTTGGTGCCTCTT, the binding signal (log2 normalized intensity) turned out to be 2.6.

Consider TCCCTAAGTACACACTGTACCCGTCCACCT, for which the binding signal (log2 normalized intensity) was found to be 1.32.

In the case of CACAAGGATCCCATTCATGTGGGTCAACAG, the binding signal (log2 normalized intensity) was 1.53.

(Values after PMC10726135.)
